Results are given in words; binding and its absence hold for the method and conditions named. For part of these data: Binding seen in cells or lysates may run through a third protein. Some entries that bind do so weakly or less than the wild type. For part of these data: Sequences can lack the tags named with a protein.
T1: HUA ENHANCER 4 (HEN4) (Arabidopsis thaliana) (UniProt F4KDN0)
T1 sequence: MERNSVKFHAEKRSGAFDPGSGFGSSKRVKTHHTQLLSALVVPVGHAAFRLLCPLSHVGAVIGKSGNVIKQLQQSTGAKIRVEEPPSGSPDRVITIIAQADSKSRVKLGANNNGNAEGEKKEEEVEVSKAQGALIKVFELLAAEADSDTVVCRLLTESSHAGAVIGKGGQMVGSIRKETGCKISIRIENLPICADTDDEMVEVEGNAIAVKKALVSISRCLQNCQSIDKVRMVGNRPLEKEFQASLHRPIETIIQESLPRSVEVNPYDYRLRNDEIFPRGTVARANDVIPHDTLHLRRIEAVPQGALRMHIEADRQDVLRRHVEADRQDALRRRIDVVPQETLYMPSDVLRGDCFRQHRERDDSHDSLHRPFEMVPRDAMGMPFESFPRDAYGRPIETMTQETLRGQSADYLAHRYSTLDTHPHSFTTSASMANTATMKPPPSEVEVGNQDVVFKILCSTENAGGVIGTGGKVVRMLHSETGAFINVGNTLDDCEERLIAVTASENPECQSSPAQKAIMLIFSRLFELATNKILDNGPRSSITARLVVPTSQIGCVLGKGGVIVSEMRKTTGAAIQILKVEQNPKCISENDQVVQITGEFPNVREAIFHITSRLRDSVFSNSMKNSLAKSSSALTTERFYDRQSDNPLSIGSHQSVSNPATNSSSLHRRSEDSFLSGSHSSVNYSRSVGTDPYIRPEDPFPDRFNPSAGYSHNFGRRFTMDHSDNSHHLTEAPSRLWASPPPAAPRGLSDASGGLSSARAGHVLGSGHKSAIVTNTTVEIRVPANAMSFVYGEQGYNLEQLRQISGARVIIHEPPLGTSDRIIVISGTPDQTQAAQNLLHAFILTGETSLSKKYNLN

T2: HUA1 (Arabidopsis thaliana) (UniProt Q941Q3)
T2 sequence: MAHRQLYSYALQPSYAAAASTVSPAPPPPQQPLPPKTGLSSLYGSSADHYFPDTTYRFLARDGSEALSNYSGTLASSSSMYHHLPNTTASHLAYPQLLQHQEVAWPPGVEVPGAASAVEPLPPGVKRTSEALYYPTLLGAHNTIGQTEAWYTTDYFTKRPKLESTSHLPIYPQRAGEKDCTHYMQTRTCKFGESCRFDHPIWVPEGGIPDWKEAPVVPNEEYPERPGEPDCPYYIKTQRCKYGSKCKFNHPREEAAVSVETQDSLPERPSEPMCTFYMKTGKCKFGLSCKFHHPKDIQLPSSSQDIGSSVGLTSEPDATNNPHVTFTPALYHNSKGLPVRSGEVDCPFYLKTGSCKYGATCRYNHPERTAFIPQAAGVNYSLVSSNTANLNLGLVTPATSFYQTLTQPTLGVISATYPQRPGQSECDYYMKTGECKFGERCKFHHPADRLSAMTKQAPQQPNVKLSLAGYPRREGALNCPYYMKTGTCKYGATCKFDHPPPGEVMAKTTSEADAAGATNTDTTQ

T3: PEPPER (PEP) (Arabidopsis thaliana) (UniProt Q9SZH4)
T3 sequence: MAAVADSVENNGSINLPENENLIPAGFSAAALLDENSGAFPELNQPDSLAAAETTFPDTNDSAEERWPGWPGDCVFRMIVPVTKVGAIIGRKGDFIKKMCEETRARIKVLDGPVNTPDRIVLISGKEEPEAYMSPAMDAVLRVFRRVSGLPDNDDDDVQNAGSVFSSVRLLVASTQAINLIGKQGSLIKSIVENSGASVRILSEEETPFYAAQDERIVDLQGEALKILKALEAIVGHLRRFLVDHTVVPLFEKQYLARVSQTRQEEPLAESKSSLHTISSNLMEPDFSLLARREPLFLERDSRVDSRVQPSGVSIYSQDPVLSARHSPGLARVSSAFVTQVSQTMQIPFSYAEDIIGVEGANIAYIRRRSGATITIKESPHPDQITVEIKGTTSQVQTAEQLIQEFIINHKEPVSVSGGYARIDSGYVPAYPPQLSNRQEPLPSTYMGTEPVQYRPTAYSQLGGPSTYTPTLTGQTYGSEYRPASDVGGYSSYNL


What was measured:
[1] = molecular target: HUA1, yeast two-hybrid fusion (Arabidopsis thaliana) (UniProt Q941Q3); assay: two-hybrid; yeast EGY48 cotransformed with pGilda and pB42AD constructs; induced with galactose and raffinose; X-gal on plates and ONPG liquid beta-galactosidase assay; empty vectors as negative controls
[2] = molecular target: T1, HUA ENHANCER 4 (HEN4) (Arabidopsis thaliana); assay: split reporter; BiFC in agroinfiltrated Nicotiana benthamiana leaf cells; one protein fused to YFPct, the other to YFPnt; fluorescence seen 72 h after inoculation; reciprocal assays gave the same results; YFPct construct with empty YFPnt gave no signal
[3] = molecular target: T2, HUA1 (Arabidopsis thaliana); assay: as above
[4] = molecular target: T3, PEPPER (PEP) (Arabidopsis thaliana); assay: as above
[5] = molecular target: FLOWERING LOCUS WITH KH DOMAINS (FLK), yeast two-hybrid fusion (Arabidopsis thaliana) (UniProt Q9SR13); assay: two-hybrid; yeast EGY48 cotransformed with pGilda and pB42AD constructs; induced with galactose and raffinose; X-gal on plates and ONPG liquid beta-galactosidase assay; empty vectors as negative controls
[6] = molecular target: PEPPER (PEP), yeast two-hybrid fusion (Arabidopsis thaliana) (UniProt Q9SZH4); assay: as above

binding [2]	binding [4]	Binder	other results
–	–	HUA1, yeast two-hybrid fusion (protein, UniProt Q941Q3 1-524) MAHRQLYSYALQPSYAAAASTVSPAPPPPQQPLPPKTGLSSLYGSSADHYFPDTTYRFLARDGSEALSNYSGTLASSSSMYHHLPNTTASHLAYPQLLQHQEVAWPPGVEVPGAASAVEPLPPGVKRTSEALYYPTLLGAHNTIGQTEAWYTTDYFTKRPKLESTSHLPIYPQRAGEKDCTHYMQTRTCKFGESCRFDHPIWVPEGGIPDWKEAPVVPNEEYPERPGEPDCPYYIKTQRCKYGSKCKFNHPREEAAVSVETQDSLPERPSEPMCTFYMKTGKCKFGLSCKFHHPKDIQLPSSSQDIGSSVGLTSEPDATNNPHVTFTPALYHNSKGLPVRSGEVDCPFYLKTGSCKYGATCRYNHPERTAFIPQAAGVNYSLVSSNTANLNLGLVTPATSFYQTLTQPTLGVISATYPQRPGQSECDYYMKTGECKFGERCKFHHPADRLSAMTKQAPQQPNVKLSLAGYPRREGALNCPYYMKTGTCKYGATCKFDHPPPGEVMAKTTSEADAAGATNTDTTQ	binding [1]: binds
binds	binds	HUA1 (protein, UniProt Q941Q3 1-524) MAHRQLYSYALQPSYAAAASTVSPAPPPPQQPLPPKTGLSSLYGSSADHYFPDTTYRFLARDGSEALSNYSGTLASSSSMYHHLPNTTASHLAYPQLLQHQEVAWPPGVEVPGAASAVEPLPPGVKRTSEALYYPTLLGAHNTIGQTEAWYTTDYFTKRPKLESTSHLPIYPQRAGEKDCTHYMQTRTCKFGESCRFDHPIWVPEGGIPDWKEAPVVPNEEYPERPGEPDCPYYIKTQRCKYGSKCKFNHPREEAAVSVETQDSLPERPSEPMCTFYMKTGKCKFGLSCKFHHPKDIQLPSSSQDIGSSVGLTSEPDATNNPHVTFTPALYHNSKGLPVRSGEVDCPFYLKTGSCKYGATCRYNHPERTAFIPQAAGVNYSLVSSNTANLNLGLVTPATSFYQTLTQPTLGVISATYPQRPGQSECDYYMKTGECKFGERCKFHHPADRLSAMTKQAPQQPNVKLSLAGYPRREGALNCPYYMKTGTCKYGATCKFDHPPPGEVMAKTTSEADAAGATNTDTTQ	binding [3]: binds
no binding	binds	HUA ENHANCER 4 (HEN4) (protein, UniProt F4KDN0 1-857) MERNSVKFHAEKRSGAFDPGSGFGSSKRVKTHHTQLLSALVVPVGHAAFRLLCPLSHVGAVIGKSGNVIKQLQQSTGAKIRVEEPPSGSPDRVITIIAQADSKSRVKLGANNNGNAEGEKKEEEVEVSKAQGALIKVFELLAAEADSDTVVCRLLTESSHAGAVIGKGGQMVGSIRKETGCKISIRIENLPICADTDDEMVEVEGNAIAVKKALVSISRCLQNCQSIDKVRMVGNRPLEKEFQASLHRPIETIIQESLPRSVEVNPYDYRLRNDEIFPRGTVARANDVIPHDTLHLRRIEAVPQGALRMHIEADRQDVLRRHVEADRQDALRRRIDVVPQETLYMPSDVLRGDCFRQHRERDDSHDSLHRPFEMVPRDAMGMPFESFPRDAYGRPIETMTQETLRGQSADYLAHRYSTLDTHPHSFTTSASMANTATMKPPPSEVEVGNQDVVFKILCSTENAGGVIGTGGKVVRMLHSETGAFINVGNTLDDCEERLIAVTASENPECQSSPAQKAIMLIFSRLFELATNKILDNGPRSSITARLVVPTSQIGCVLGKGGVIVSEMRKTTGAAIQILKVEQNPKCISENDQVVQITGEFPNVREAIFHITSRLRDSVFSNSMKNSLAKSSSALTTERFYDRQSDNPLSIGSHQSVSNPATNSSSLHRRSEDSFLSGSHSSVNYSRSVGTDPYIRPEDPFPDRFNPSAGYSHNFGRRFTMDHSDNSHHLTEAPSRLWASPPPAAPRGLSDASGGLSSARAGHVLGSGHKSAIVTNTTVEIRVPANAMSFVYGEQGYNLEQLRQISGARVIIHEPPLGTSDRIIVISGTPDQTQAAQNLLHAFILTGETSLSKKYNLN	–
–	–	FLOWERING LOCUS WITH KH DOMAINS (FLK), yeast two-hybrid fusion (protein, UniProt Q9SR13 1-577) MAEAEDQQNFVAHNGDQVPDQGSDELHNGLPYQVHDETLVHQPYEVEDPILEPQQYEVPDPTLEPQQYEVPDQTLEPQQYEVDDQLEYHQYQLQDQANEDVQDHSQDDLQYQPQNQEQFQLQDEAHDQAQYQAQGDVQDHNGDEVQDKVEDEEGIPEHLESLQKSEPEEDATVGGEEKRWPGWPGETVFRMLVPAQKVGSIIGRKGDVIKKIVEETRARIKILDGPPGTTERAVMVSGKEEPESSLPPSMDGLLRVHMRIVDGLDGEASQAPPPSKVSTRLLVPASQAGSLIGKQGGTVKAIQEASACIVRVLGSEDLPVFALQDDRVVEVVGEPTSVHRALELIASHLRKFLVDRSIIPFFENQMQKPTRQMDHMPPPHQSWGPPQGHAPSVGGGGYGHNPPPYMQPPPRHDSYYPPPEMRQPPMEKQPHQGISAYGREPPMNVHVSSAPPMVAQQVTQQMQIPLSYADAVIGTSGSNISYTRRLSGATVTIQETRGVPGEMTVEVSGTGSQVQTAVQLIQNFMAEAGAPAPAQPQTVAPEQQGYNPYATHGSVYAAAPTNPPGGYATDYSSGYGY	binding [5]: binds
–	–	PEPPER (PEP), yeast two-hybrid fusion (protein, UniProt Q9SZH4 1-495) MAAVADSVENNGSINLPENENLIPAGFSAAALLDENSGAFPELNQPDSLAAAETTFPDTNDSAEERWPGWPGDCVFRMIVPVTKVGAIIGRKGDFIKKMCEETRARIKVLDGPVNTPDRIVLISGKEEPEAYMSPAMDAVLRVFRRVSGLPDNDDDDVQNAGSVFSSVRLLVASTQAINLIGKQGSLIKSIVENSGASVRILSEEETPFYAAQDERIVDLQGEALKILKALEAIVGHLRRFLVDHTVVPLFEKQYLARVSQTRQEEPLAESKSSLHTISSNLMEPDFSLLARREPLFLERDSRVDSRVQPSGVSIYSQDPVLSARHSPGLARVSSAFVTQVSQTMQIPFSYAEDIIGVEGANIAYIRRRSGATITIKESPHPDQITVEIKGTTSQVQTAEQLIQEFIINHKEPVSVSGGYARIDSGYVPAYPPQLSNRQEPLPSTYMGTEPVQYRPTAYSQLGGPSTYTPTLTGQTYGSEYRPASDVGGYSSYNL	binding [6]: binds
–	binds	PEPPER (PEP) (protein, UniProt Q9SZH4 1-495) MAAVADSVENNGSINLPENENLIPAGFSAAALLDENSGAFPELNQPDSLAAAETTFPDTNDSAEERWPGWPGDCVFRMIVPVTKVGAIIGRKGDFIKKMCEETRARIKVLDGPVNTPDRIVLISGKEEPEAYMSPAMDAVLRVFRRVSGLPDNDDDDVQNAGSVFSSVRLLVASTQAINLIGKQGSLIKSIVENSGASVRILSEEETPFYAAQDERIVDLQGEALKILKALEAIVGHLRRFLVDHTVVPLFEKQYLARVSQTRQEEPLAESKSSLHTISSNLMEPDFSLLARREPLFLERDSRVDSRVQPSGVSIYSQDPVLSARHSPGLARVSSAFVTQVSQTMQIPFSYAEDIIGVEGANIAYIRRRSGATITIKESPHPDQITVEIKGTTSQVQTAEQLIQEFIINHKEPVSVSGGYARIDSGYVPAYPPQLSNRQEPLPSTYMGTEPVQYRPTAYSQLGGPSTYTPTLTGQTYGSEYRPASDVGGYSSYNL	–

— paper PMC4450054
